Out of some 310,000 compounds screened, about 14,000 (4.5%) showed an effect of 50% or more. The effect is printed as a negative number. The list shows a part of the results.
What follows are compounds tested against human ether-à-go-go-related gene (hERG) potassium channel (human, UniProt Q12809) (assay: primary screen, population patch clamp on CHO cells stably expressing hERG).
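Further: peak tail current of the secondary pulse compared with the same well before compound.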

human ether-à-go-go-related gene (hERG) potassium channel, sequence (Q12809 whole entry, looked up): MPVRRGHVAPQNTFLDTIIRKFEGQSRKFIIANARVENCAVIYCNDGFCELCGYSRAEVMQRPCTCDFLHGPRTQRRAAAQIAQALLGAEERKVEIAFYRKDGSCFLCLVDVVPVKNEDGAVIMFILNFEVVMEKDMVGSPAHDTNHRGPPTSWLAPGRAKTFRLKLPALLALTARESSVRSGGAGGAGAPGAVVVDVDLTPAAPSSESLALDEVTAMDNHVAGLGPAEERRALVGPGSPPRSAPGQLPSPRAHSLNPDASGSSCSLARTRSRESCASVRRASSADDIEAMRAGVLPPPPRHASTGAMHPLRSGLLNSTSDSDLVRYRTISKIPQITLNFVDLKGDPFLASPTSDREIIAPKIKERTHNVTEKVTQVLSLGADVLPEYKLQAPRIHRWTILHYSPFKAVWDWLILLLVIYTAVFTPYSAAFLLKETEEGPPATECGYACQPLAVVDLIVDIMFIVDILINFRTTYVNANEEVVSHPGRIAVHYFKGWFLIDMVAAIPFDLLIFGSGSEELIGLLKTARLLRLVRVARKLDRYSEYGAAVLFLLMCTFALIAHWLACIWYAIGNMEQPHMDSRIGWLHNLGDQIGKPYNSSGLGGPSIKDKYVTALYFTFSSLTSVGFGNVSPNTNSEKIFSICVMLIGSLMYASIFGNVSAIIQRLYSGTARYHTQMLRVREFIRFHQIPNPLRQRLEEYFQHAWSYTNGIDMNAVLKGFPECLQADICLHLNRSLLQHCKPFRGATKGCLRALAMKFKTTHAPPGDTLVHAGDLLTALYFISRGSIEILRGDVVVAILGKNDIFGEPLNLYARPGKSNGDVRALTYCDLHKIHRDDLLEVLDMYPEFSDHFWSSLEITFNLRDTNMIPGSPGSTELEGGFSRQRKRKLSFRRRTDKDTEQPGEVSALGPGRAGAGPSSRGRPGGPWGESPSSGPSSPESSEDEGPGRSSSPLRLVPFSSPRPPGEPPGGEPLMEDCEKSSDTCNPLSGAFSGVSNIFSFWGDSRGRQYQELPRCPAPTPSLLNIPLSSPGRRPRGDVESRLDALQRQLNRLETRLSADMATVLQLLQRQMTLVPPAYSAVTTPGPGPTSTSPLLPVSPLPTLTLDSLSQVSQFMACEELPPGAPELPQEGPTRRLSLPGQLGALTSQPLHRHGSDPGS

SMILES | hERG current change (%, negative = inhibition) at 10uM [%]
COc1ccc(N2CCN(c3nc4c(c(=O)n(C)c(=O)n4C)n3CCCc3ccccc3)CC2)cc1 | 13.4
c1ccc(Nc2nc(Nc3ccccc3)nc(N3CCNCC3)n2)cc1 | -8.35
O=C(NCCc1ccccc1)C1CC(=O)N(C2CCCC2)C1 (stereo not drawn) | 16.1
O=C(CCN1C(=O)C2CC=CCC2C1=O)Nc1nc(-c2ccc(F)c(F)c2)cs1 (stereo not drawn) | -37.6
COc1ccc(/C=N\N2CCN(Cc3ccccc3Cl)CC2)cc1.Cl | -62.4
CCOc1ccc(N(CCC#N)S(=O)(=O)c2ccc(OC)cc2)cc1 | -33.3
CC(C)c1ccc(C2c3[nH]c4ccccc4c3C[C@H]3C(=O)N(c4ccccc4C(=O)N4CCC(C(=O)O)CC4)C(=O)N23)cc1 (stereo partly drawn) | 3.23
NC(=O)N/N=C/c1ccccc1OC(=O)c1cc2ccccc2oc1=O | 12.5
Cc1cccc(N2CC(C(=O)OCC(=O)c3ccc(OC(=O)c4cccs4)cc3)CC2=O)c1C (stereo not drawn) | 0.31
Cc1ccc2cc(CN(C(=O)c3ccco3)c3ccccc3)c(=O)[nH]c2c1 | 13.8
CCN(C(=O)c1cccs1)c1nc(-c2ccc(OC)cc2)cs1 | 23.1
CC(=O)C1=C(O)CC(C)(C)CC1=NCc1nc2ccccc2[nH]1 | 8.14
O=c1c2cccc3c2c(nn1-c1ccccc1)-c1ccccc1-3 | 12.2
C/C(=N/NC(N)=S)c1ccc(Br)s1 | 16.8
O=C(CSc1ccc2nnc(-c3ccc(F)cc3)n2n1)NCc1ccco1 | -21.7
Cc1ccc(OCC(=O)NCCCNC(=O)c2ccncc2)cc1C | -11.5
Nc1cccc(C(=O)NCCNC(=O)c2cccc(N)c2)c1 | -19.7
CC(NC(=O)Cn1cccc1)c1ccccc1 (stereo not drawn) | 25.9
COc1cccc2c(Cl)c(CCCl)c(C)nc12 | 10.2
COC(=O)C1=CO[C@H](C)[C@H]2CN3CC[C@@]4(C(=O)Nc5ccccc54)[C@@H]3C[C@H]12 | 0.236
CC(=O)NCCC(=O)N1CCCC(N2CCN(c3cccc(Cl)c3)CC2)C1 (stereo not drawn) | 2.11
CC1(C)CC(=O)c2c(S(C)(=O)=O)sc(Br)c2C1 | 6.05
CC1=Nn2c(nc(-c3ccccc3)c2-c2ccccc2)N(CC(N)=O)C(=O)C1 | 1.9
FC(F)Oc1ccc(-c2c[n+]3c(n2-c2ccccc2)CCCCC3)cc1 | -70.3

Source: PMC4336329 (PLoS ONE, 2015)
